# Laboratory results as given in PubChem BioAssay AID445 (National Center for Advancing Translational Sciences (NCATS), 2006).
# Hit rate of the full screen: of about 110,000 compounds, about 40 (0.04%) were called active. Inconclusive means that the source gave no clear call. Such entries were picked first, then a sample of the others. Calls come from the whole dose curve; as a rule, active = well fitted curve in the direction sought with a large enough effect in the signal ratio (not every such curve was filed as active); inconclusive = small, poorly fitted or top-dose-only effect, or a change in a side signal; inactive = flat fitted curve, though single readings scatter; the % refers to the signal ratio. A potency beside an inconclusive call is a rough fit, not a confirmed value.
# Assay: IkB Signaling;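 for IkBa stabilization activation: 0% = basal untreated cells and 100% = reference inhibitor full response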
# Conditions: ABC-DLBCL IkBa-CBG/CBR dual luciferase ratio (green luciferase fused to IkBa over red control in OCI-Ly3 lymphoma cells), 4 h; IkBa stabilization activation: at 57.1 µM (top of the series), scaled: untreated 0%, proteasome inhibitor 100% unless noted
# Procedure, shortened: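 In this assay, an IκBα–CBG68 fusion accumulates when IKK-driven degradation is blocked; native CBR normalizes for cell number. OCI-Ly3 cells were treated 4 h with compound and doxycycline, then green and red light read after Chroma-Glo addition.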
# Potency is the fitted concentration of half-maximal effect.
Structure (SMILES),IkBa stabilization activation,Potency
Cc1cc(NC(=O)CSc2nnc(COc3ccccc3)n2Cc2ccco2)no1,inactive,–
COCCNC(=O)c1ccc(CSc2nc3ccncc3n2Cc2ccccc2)cc1,inconclusive: 2.25% [signal inhibitor],–
COc1ccc2nc(NC(=O)C3CCCN3S(=O)(=O)c3ccc(C)cc3)sc2c1 (centres undefined),inconclusive: 0.87% [signal inhibitor],–
COc1cccc(NC(=O)Cn2c(=O)n(-c3ccc(Cl)cc3)c(=O)c3sc4ccccc4c32)c1,–,inconclusive: 15.8 µM [signal inhibitor]
CCOc1ccc(/C=C/c2nc3ccccc3n2S(=O)(=O)c2ccc(Br)cc2)cc1,inconclusive: 7.7% [signal inhibitor],–
O=C(Cn1c(=O)nc(-c2ccccc2)c2cc(Cl)ccc21)NCCc1ccc(Cl)cc1,inconclusive: 2.01% [signal inhibitor],–
COC(=O)c1c(NC(=O)c2ccc(Br)s2)sc2c1CCC2,inconclusive: 12.6% [signal inhibitor],–
CCC(=O)Nc1ccc(NC(=O)c2cccc(OC)c2)nc1,inconclusive: 17.2% [signal inhibitor],–
CCc1ccc(NCc2cccn2-c2nnc(N3CCCCCC3)s2)cc1,inconclusive: -3.39% [signal inhibitor],–
COc1ccc(OC)c(-c2cc(C(=O)Nc3cnn(Cc4ccc(Cl)cc4Cl)c3)no2)c1,inconclusive: -3.5% [signal inhibitor],–
COc1ccc2nc(NC(=O)c3cc(=O)c4ccccc4o3)sc2c1,inconclusive: 10.3% [signal inhibitor],–
Cc1c(C(=O)Nc2ccncc2)sc2nc(-c3ccc(F)cc3)cn12,inconclusive: 14.7% [signal activator],–
Nc1nc(CN2CCN(c3ccccc3)CC2)nc(N2CCCc3ccccc32)n1,inactive,–
COc1cc(C(=O)Nc2cc(-c3nc4cc(C)ccc4o3)ccc2C)cc(OC)c1OC,inconclusive: 6.62% [signal inhibitor],–
CCCCNC(=O)c1c(C)oc2ncn(CC(C)C)c(=O)c12,inactive,–
Cc1ccccc1CN1C(=O)c2ccccc2Sc2ccc(C(=O)NCc3cccs3)cc21,inconclusive: 3.53% [signal inhibitor],–
CCC(=O)N1CCc2cc(Br)cc(S(=O)(=O)N3CCCC(C(=O)NCc4ccccc4)C3)c21 (centres undefined),inactive,–
O=C(NC1=NCCS1)Nc1ccccc1,inactive,–
Cc1onc(-c2ccccc2Cl)c1C(=O)N1CCN(C/C=C/c2ccccc2)CC1,inconclusive: -2.38% [signal inhibitor],–
CCCN1Cc2cccc(C(=O)Nc3cc(C)cc(C)c3)c2C1=O,inactive,–
O=C(O)c1ccc(CO)o1,inactive,–
O=C(Oc1cccc(NC(=O)c2ccco2)c1)c1cccc(S(=O)(=O)N2CCCC2)c1,inconclusive: 13.6% [signal inhibitor],–
O=C(O)CSCc1cccc2ccccc12,"inactive: -4.61% [at 11.4 µM, scaled: untreated 0%, proteasome inhibitor 100%]",–
COc1cc(C2c3c(-c4ccccc4)n[nH]c3C(=O)N2c2ccccc2)ccc1O (centres undefined),inconclusive: 7.05% [signal inhibitor],–
COc1cccc(N=Cc2ccc(O)cc2O)c1,inactive,–

Structure (SMILES),IkBa stabilization activation,Potency
CCC(CC)c1nn2c(=O)cc(COc3ccc(NC(=O)c4cccc(Cl)c4)cc3)nc2s1,inactive,–
Cc1cccc(NC(=O)Nc2cccc(F)c2)n1,inactive,–
Cc1nnc2c(Nc3cccc(O)c3)nc3ccccc3n12,inactive,–
Oc1ccc(CNc2ccccc2F)c2cccnc12,inactive,–
CSc1cccc(Nc2cc(C(=O)NCCCN(C)c3ccccc3)c3ccccc3n2)c1,inconclusive: 1.88% [signal inhibitor],–
CCOC(=O)c1c(-c2ccc(C)cc2)csc1NC(=O)c1cc(=O)c2ccc(C)cc2o1,inactive,–
COc1ccc(/C=C/C(=O)Nc2nc3n(n2)C(c2ccc(F)cc2)C=C(c2ccccc2)N3)cc1 (centres undefined),inconclusive: 1.91% [signal inhibitor],–
O=C1C2C3CCCC3=C3CCCC3C2C(=O)N1c1ccc(Cl)cc1 (centres undefined),inactive,–
COc1ccc(NC(=O)C2C(=O)NC3(C)CC2c2ccccc2O3)cc1 (centres undefined),inconclusive: 2.84% [signal inhibitor],–
COc1ccc(NC(=O)C2CCCN(S(=O)(=O)c3ccc(Br)s3)C2)cc1 (centres undefined),–,inconclusive: 25.1 µM [signal inhibitor]
N#Cc1cc2sc3nnc(-c4ccncc4)n3c2cc1C#N,inactive,–
CCOc1ccc(C(=O)c2oc3ccccc3c2NC(=O)Cc2coc3ccc(CC)cc23)cc1,inactive,–
Cc1cccc(NC(=O)N2CCC3(CC2)Oc2ccccc2C(=O)N3Cc2ccccc2F)c1C,inactive,–
COc1ccccc1OC[C@H](O)CN1CCN(CC(=O)Nc2c(C)cccc2C)CC1,inactive,–
CCc1ccc(CNC(=O)c2c(C)oc3ncnc(N4CCOCC4)c23)cc1,inconclusive: -0.349% [signal inhibitor],–
COC(=O)c1cc(COc2ccc3oc(C)c(C(=O)OC)c3c2)c(C)o1,inconclusive: -0.0267% [signal inhibitor],–
CCOC(=O)Cc1nnc2c(Nc3ccc(Cl)cc3)nc3nonc3n12,inconclusive: -1.9% [signal inhibitor],–
CN(C)CCNC(=O)c1cc2c(=O)n(C)c3ccccc3c2n1C,inactive,–
CCc1nc(SCC(=O)N2CCc3ccccc32)c2oc3ccccc3c2n1,inactive,–
O=C(NCCn1ccc2ccccc21)c1ccc(Cl)cc1,inconclusive: 11.4% [signal inhibitor],–
COc1ccccc1NC(=O)CSc1nc(-c2ccc(C(C)(C)C)cc2)c(C#N)c(=O)[nH]1,inconclusive: 3% [signal inhibitor],–
Cc1cccc(N2CCN(CCNC(=O)Nc3ccc(Cl)cc3)CC2)c1C,inconclusive: 8.03% [signal inhibitor],–
COc1cccc(Cn2c(=O)cnc3cnc(N(C)C)nc32)c1,"inactive: -2.62% [at 11.4 µM, scaled: untreated 0%, proteasome inhibitor 100%]",–
COc1ccc(NC(=O)CN(c2cc(C)cc(C)c2)S(=O)(=O)c2c(C)noc2C)cc1OC,inconclusive: 4.68% [signal inhibitor],–
